Results reported in PubChem BioAssay AID2100 (National Center for Advancing Translational Sciences (NCATS), 2009).
Where “and” joins values, the source holds several entries; their conditions need not be identical. Equal entries are not always repeated. Hit rate of the full screen: of about 300,000 compounds, about 1,200 (0.4%) were called active. Inconclusive means that the source gave no clear call. Such entries were picked first, then a sample of the others. Calls follow the shape of the dose curve; as a rule, active = well fitted inhibition curve with a large enough effect; inconclusive = small, poorly fitted or top-dose-only effect, or another doubt; inactive = no such curve, though single readings can be large or run the other way. Where the call is inconclusive, the potency comes from a doubtful curve fit.

The compounds below were run against Lysosomal alpha-glucosidase (Homo sapiens) (UniProt P10253) (assay: qHTS Assay for Inhibitors and Activators of Human alpha-Glucosidase Cleavage of Glycogen). Conditions: recombinant GAA, glycogen substrate, Amplex Red glucose oxidase fluorescence; activity change, negative = inhibition: at 76.4 µM (top of the series) unless noted.
Method in brief: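 qHTS, 1536-well; enzyme 4 nM final; cpd up to 77 uM; substrate bovine liver glycogen 30 ug; 50 mM citrate/phosphate pH 5.0, 0.01% Tween-20; 37 C, 40 min; Amplex Red detection 45 min RT; Hill fit → AC50.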
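For activity change, negative = inhibition in this document: 0% = full enzyme reaction and -100% = no-enzyme basal signal.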
Potency is read from the fitted curve at half-maximal effect.

Row | SMILES | Potency | activity change, negative = inhibition
1 | COc1ccc(-c2cn[nH]c2-c2ccc(O)cc2O)cc1 | inconclusive: 39.8 µM [inhibitor, single point] | –
2 | O=[N+]([O-])c1cc(C(F)(F)F)cc([N+](=O)[O-])c1NCCNC(=S)Nc1cccc(F)c1 | inconclusive: 28 µM [inhibitor, partial curve] | –
3 | Cc1ccc(-c2nc3ncccn3c2Nc2ccc3c(c2)OCCO3)cc1 | inactive and inconclusive: 5.01 µM [inhibitor, full curve] | –
4 | O=c1cc(-c2cccc3ccccc23)[nH][nH]1 | inconclusive: 50.1 µM [inhibitor, single point] | –
5 | CN(Cc1ccccc1)C(=O)COC(=O)c1cc(NS(=O)(=O)c2cccs2)ccc1O | inconclusive: 8.91 µM [inhibitor, partial curve] | –
6 | Cc1ccc(NCc2n[nH]c(=S)n2Cc2ccccc2)cc1Cl | inconclusive: 50.1 µM [inhibitor, single point] | –
7 | CCc1cc(=O)oc2cc(C)cc(O)c12 | inconclusive: 14.1 µM [activator, partial curve] | –
8 | CCNc1ccc(C(=O)O)cc1N | inconclusive: 12.6 µM [inhibitor, partial curve] | –
9 | Cc1ccc(CNC(=O)C(C)n2nc(C)n3c(cc4sccc43)c2=O)cc1 (stereo not given) | – | inactive: 6.76% [at 76.3 µM]
10 | COc1ccc(NC(=S)N2CCN(C(c3ccccc3)c3ccccc3)CC2)cc1OC | inconclusive: 5.01 µM [inhibitor, full curve, poor fit] | –
11 | Cc1ccc2c(c1)C(c1ccccc1)C(=O)O2 (stereo not given) | inconclusive: 17.6 µM [inhibitor, partial curve] | –
12 | CCNC(=S)NNC(=O)c1csc(CC)c1 | inconclusive: 39.5 µM [inhibitor, single point] | –
13 | CC1(C)CC(=O)C/C(=N/NC(=O)c2ccc(-c3ccccc3)cc2)C1 | inconclusive: 14.1 µM [inhibitor, partial curve] | –
14 | COc1ccc(CCNC(=O)Cc2c(C)c3cc4c(C(C)(C)C)coc4c(C)c3oc2=O)cc1 | – | inactive: -6.57% [at 76.3 µM]
15 | N#Cc1nc(-c2ccco2)oc1NCc1ccccc1Cl | inconclusive: 14.1 µM [inhibitor, partial curve, poor fit] | –
16 | CCc1ccc(CSc2nccn2-c2ccccc2)cc1 | inconclusive: 39.5 µM [inhibitor, single point] | –
17 | O=[N+]([O-])c1cc(S(=O)(=O)Nc2ccccc2)ccc1N1CCN(c2ccc(O)cc2)CC1 | inconclusive: 35.5 µM [inhibitor, single point] | –
18 | O=C(NNc1cccc(Cl)n1)Nc1ccc(F)cc1 | inconclusive: 25.1 µM [inhibitor, single point] | –
19 | COc1ccc(N=C2C(=O)Nc3ccccc32)cc1 | inconclusive: 28 µM [inhibitor, partial curve] | –
20 | CC1CC2(CCCCC2)Nc2c1ccc1ccccc21 (stereo not given) | inconclusive: 28.2 µM [inhibitor, partial curve] | –
21 | CCOC(=O)c1[nH]c2ccccc2c1NC(=S)Nc1cccc(C)c1 | inconclusive: 12.6 µM [inhibitor, partial curve] | –
22 | CC1=Nc2cc(C(=O)N3CCC(C)CC3)ccc2Sc2ccc(Cl)cc21 | – | inactive: -8.37% [at 76.3 µM]
23 | CCc1cc(-c2n[nH]c(C)c2Oc2ccc(C(C)C)cc2)c(O)cc1O | inconclusive: 35.5 µM [inhibitor, partial curve] | –
24 | Nc1ccc2c(c1)OC1(CCCC1)O2 | active: 31.4 µM | –

Row | SMILES | Potency | activity change, negative = inhibition
25 | CCOc1ccc(Nc2oc(/C=C/c3cccc(OC)c3)nc2C#N)cc1 | inconclusive: 28.2 µM [inhibitor, single point] | –
26 | Cc1nc2ccc(N=NN(C)C)cc2[nH]1 | – | inactive: 4.8%
27 | Cc1sc(NC(=O)c2ccco2)c(CN2CCN(Cc3ccccc3)CC2)c1C | inconclusive: 28.2 µM [inhibitor, partial curve] | –
28 | CN(C)c1nc(N/N=C/c2c[nH]c3ccccc23)nc(N2CCOCC2)n1 | inconclusive: 39.5 µM [inhibitor, single point] | –
29 | Cc1ccccc1N1C(=O)CC(N(O)c2ccccc2)C1=O (stereo not given) | active: 3.95 µM | –
30 | CCCOc1ccc(N)cc1N | inconclusive: 39.5 µM [inhibitor, single point] | –
31 | CC1CN(C(=O)N2CCC(C(=O)NCCCc3ccccc3)CC2)c2ccccc2O1 (stereo not given) | inconclusive: 2 µM [inhibitor, partial curve] | –
32 | COc1cccc(-n2cn[nH]c2=S)c1 | – | inactive: -6.46%
33 | CCN(CC)C(=O)Cn1c(=O)n(-c2ccccc2)c(=O)c2c3c(sc21)CCC3 | inconclusive: 31.6 µM [inhibitor, single point] | –
34 | COc1cc(/C=N/NC(=O)c2cn(-c3cccc(C)n3)cn2)ccc1O | active: 25.1 µM | –
35 | COC(=O)C1=NN(C(=O)c2ccc(Br)cc2)C(O)(C(C)(C)C)C1 (stereo not given) | inconclusive: 25.1 µM [inhibitor, single point] | –
36 | COc1ccccc1NC(=O)Nc1nn(C)c2cccc(N(C)C)c12 | – | inactive: -11.5%
37 | N#Cc1c(N)sc2c1CCCCCC2 | inconclusive: 28.2 µM [inhibitor, partial curve] | –
38 | COc1cccc(-c2cn3ncsc3n2)c1 | inconclusive: 56.2 µM [inhibitor, partial curve, poor fit] | –
39 | O/N=C1\CCCc2nnc3c(c21)CCCC3 | – | inactive: -8.95%
40 | N#CCc1ccc(Oc2ccc([N+](=O)[O-])cn2)cc1 | inconclusive: 11.2 µM [inhibitor, single point] | –
41 | Cc1ccc(NC(=O)COc2nsnc2N2CCOCC2)cc1Cl | – | inactive: -0.655%
42 | CC(=O)Nc1ccc(-c2sc(Nc3cccc4ccccc34)n[n+]2-c2ccccc2)cc1 | inconclusive: 35.5 µM [inhibitor, single point] | –
43 | Cc1ccc(C)c(-c2nn(-c3cc(N4CCN(CCO)CC4)ccc3[N+](=O)[O-])c(=O)c3ccccc23)c1 | – | inactive: -3.31%
44 | CCCCC(CC)C(=O)Oc1ccc(O)c(C(C)(C)C)c1 (stereo not given) | inconclusive: 35.5 µM [inhibitor, partial curve] | –
45 | Cc1ccc2c(c1)-c1nc(-c3ccc4c(c3)NC(=O)CO4)cc(-c3ccccc3)c1CO2 | – | inactive: 11.8% [at 76.3 µM]
46 | O=C(CCCCn1c(=O)c2ccccc2n(Cc2cccc(F)c2)c1=O)NCCc1ccccc1 | – | inactive: 2.55% [at 76.3 µM]
47 | CC(C)(C)c1nnc(N/N=C/c2ccccc2)n(N)c1=O | inconclusive: 39.5 µM [inhibitor, single point] | –
48 | COc1ccc2c(/C=N/NS(=O)(=O)c3ccc(C)cc3)c[nH]c2c1 | active: 8.91 µM | –

Row | SMILES | Potency | activity change, negative = inhibition
49 | O=C(Nc1sc2c(c1C(=O)NCc1ccco1)CCCC2)c1cc(=O)c2cc(Cl)ccc2o1 | – | inactive: 14.1% [at 76.3 µM]
50 | O=C(Nc1cccc(-n2cnnn2)c1)c1ccco1 | – | inconclusive: 32.5% [activator]
51 | Cc1nn(-c2ccccc2)c2[nH]c(=O)c(CNc3ccc(N4CCOCC4)cc3)cc12 | active: 19.8 µM | –
52 | O=C(N/N=C/c1ccc[nH]1)c1ccccc1O | inconclusive: 39.5 µM [inhibitor, partial curve] | –
53 | Oc1ccc(/C=N/N=C(c2ccccc2)c2ccccc2)c(O)c1O | inconclusive: 25.1 µM [inhibitor, partial curve] | –
54 | CCN1C(C(=O)c2ccccc2)=C(OC(=O)COc2ccc(C)cc2)c2ccccc2S1(=O)=O | inconclusive: 11.2 µM [inhibitor, partial curve] | –
55 | O=C(Nc1cc(N2CCOCC2)ncn1)NC1(C(F)(F)F)Oc2ccccc2O1 | inconclusive: 4.47 µM [inhibitor, full curve] | –
56 | CC12CCC(C(=O)NCCN3CCCCC3)(CC1=O)C2(C)C (stereo not given) | – | inconclusive: 39.6% [activator]
57 | Cc1ccc(C(=O)NC(=S)/C=C2\N(C)c3ccccc3C2(C)C)cc1 | inconclusive: 25.1 µM [inhibitor, partial curve] | –
58 | COC(=O)C1=C(C)N(CC2CCCO2)C(=O)/C1=C\c1ccc(O)cc1 (stereo not given) | inconclusive: 22.4 µM [inhibitor, partial curve] | –
59 | COc1ccc(N(CC(=O)Nc2cccc(Cl)c2)S(=O)(=O)c2c(C)[nH]c(=O)[nH]c2=O)cc1 | – | inactive: -0.558% [at 76.3 µM]
60 | CCOc1ccc(Nc2nc(-c3cccc(Cl)c3)c3c(n2)-c2ccccc2OC3)cc1 | – | inactive: 14.9% [at 76.3 µM]
61 | COc1cc(/C=C2/SC(=NCc3ccccc3)N(Cc3ccccc3)C2=O)ccc1O | inconclusive: 28.2 µM [inhibitor, single point] | –
62 | Cc1ccccc1-c1noc(CSc2nc3ccccc3[nH]2)n1 | inconclusive: 35.5 µM [inhibitor, partial curve] | –
63 | Cc1cc(=O)n2nc(N(C)CC(=O)NCc3ccccc3C)sc2n1 | – | inactive: 13.8% [at 76.3 µM]
64 | CCOC(=O)c1ccc(S(=O)(=O)NNS(=O)(=O)c2ccc(C)cc2)cc1 | inconclusive: 14.1 µM [inhibitor, partial curve] | –
65 | O=C(O)c1ccc(N/N=C/c2ccc3c(c2)OCO3)cc1 | inconclusive: 39.5 µM [inhibitor, single point] | –
66 | COc1ccc(CCNCc2cc(C)n(-c3ccc(OC)cc3)c2C)cc1 | inconclusive: 39.8 µM [activator, single point] | –
67 | O=C1Cc2cc(S(=O)(=O)N3CCN(c4cccc(Cl)c4)CC3)ccc2N1 | inconclusive: 3.98 µM [inhibitor, partial curve] and inconclusive: 2.6 µM [inhibitor, full curve] | –
68 | Cc1cc(NC(=O)c2sc3ccccc3c2O)no1 | inconclusive: 50.1 µM [inhibitor, single point] | –
69 | C/C(=C\c1ccccc1)C1NC(=O)c2c(sc3c2CCCC3)N1 (stereo not given) | inconclusive: 50.1 µM [inhibitor, single point] | –
70 | CCCn1c2ccc(F)cc2c2nnc(SCCN3CCCCC3)nc21 | inconclusive: 1 µM [inhibitor, full curve] | –
